Data published in PMC5684335, “ER-associated degradation regulates Alzheimer’s amyloid pathology and memory function by modulating γ-secretase activity” (Nature Communications, 2017).
No constants are given. Whether binding was seen depends on the method and setting. Binding seen in cells or lysates may run through a third protein. Some entries that bind do so weakly or less than the wild type. Blank lines part the entries; values can stand above or below the substance they belong to.

Chains of the proteins cited; added tags and fusions are not shown. Residues count along the entry.
UniProt Q8CIV2: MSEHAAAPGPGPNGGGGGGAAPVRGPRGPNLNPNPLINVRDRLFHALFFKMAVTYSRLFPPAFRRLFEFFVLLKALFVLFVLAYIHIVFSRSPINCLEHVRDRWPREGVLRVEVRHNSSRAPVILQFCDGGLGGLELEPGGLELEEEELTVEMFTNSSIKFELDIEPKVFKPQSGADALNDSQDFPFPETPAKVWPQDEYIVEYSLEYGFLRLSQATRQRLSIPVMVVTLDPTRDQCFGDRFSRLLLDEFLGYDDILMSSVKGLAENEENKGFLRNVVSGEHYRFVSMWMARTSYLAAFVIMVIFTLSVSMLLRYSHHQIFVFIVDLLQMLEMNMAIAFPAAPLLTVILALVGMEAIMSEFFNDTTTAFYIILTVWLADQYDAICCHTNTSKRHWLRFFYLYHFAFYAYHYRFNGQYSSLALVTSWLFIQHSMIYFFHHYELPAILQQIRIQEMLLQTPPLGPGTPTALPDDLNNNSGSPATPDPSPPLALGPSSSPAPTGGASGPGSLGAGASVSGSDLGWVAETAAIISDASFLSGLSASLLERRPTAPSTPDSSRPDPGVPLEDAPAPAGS
UniProt Q9DBY1: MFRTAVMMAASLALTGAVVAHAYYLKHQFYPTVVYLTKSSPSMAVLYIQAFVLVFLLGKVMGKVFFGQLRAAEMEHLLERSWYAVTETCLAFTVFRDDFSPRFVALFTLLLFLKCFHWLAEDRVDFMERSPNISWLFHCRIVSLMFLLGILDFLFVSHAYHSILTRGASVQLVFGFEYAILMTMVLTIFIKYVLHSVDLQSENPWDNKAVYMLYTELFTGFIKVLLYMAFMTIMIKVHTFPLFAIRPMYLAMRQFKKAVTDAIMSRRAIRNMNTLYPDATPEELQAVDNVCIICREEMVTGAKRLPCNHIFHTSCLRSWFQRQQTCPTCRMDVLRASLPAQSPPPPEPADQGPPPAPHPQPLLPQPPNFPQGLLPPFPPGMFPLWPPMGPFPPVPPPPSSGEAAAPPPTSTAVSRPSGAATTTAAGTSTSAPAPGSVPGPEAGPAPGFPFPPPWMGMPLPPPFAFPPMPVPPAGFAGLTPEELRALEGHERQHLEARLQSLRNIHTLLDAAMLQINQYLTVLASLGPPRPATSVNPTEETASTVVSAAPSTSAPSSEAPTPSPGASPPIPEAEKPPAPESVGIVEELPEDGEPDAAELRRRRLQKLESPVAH
UniProt Q9CQR7: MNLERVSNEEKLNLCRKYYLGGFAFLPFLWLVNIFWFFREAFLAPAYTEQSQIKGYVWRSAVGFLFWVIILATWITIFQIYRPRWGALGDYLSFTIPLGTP
UniProt Q9UKV5: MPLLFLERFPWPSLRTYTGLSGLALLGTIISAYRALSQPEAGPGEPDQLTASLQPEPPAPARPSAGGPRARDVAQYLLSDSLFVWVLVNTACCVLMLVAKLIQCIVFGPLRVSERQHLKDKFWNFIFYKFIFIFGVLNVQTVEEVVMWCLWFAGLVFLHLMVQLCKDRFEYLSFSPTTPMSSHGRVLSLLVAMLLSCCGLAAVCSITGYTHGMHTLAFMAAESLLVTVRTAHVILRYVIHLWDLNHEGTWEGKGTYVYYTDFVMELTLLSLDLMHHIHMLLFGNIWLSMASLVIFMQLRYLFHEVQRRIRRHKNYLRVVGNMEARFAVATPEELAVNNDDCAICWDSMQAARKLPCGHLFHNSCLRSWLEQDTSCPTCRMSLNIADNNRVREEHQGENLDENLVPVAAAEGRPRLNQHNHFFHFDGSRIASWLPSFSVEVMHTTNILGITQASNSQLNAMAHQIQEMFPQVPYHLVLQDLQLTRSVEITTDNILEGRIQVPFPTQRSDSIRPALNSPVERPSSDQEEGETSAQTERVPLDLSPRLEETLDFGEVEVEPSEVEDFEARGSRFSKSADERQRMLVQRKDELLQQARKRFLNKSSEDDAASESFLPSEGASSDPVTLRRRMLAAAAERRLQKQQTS
UniProt P57716, residues 28-708: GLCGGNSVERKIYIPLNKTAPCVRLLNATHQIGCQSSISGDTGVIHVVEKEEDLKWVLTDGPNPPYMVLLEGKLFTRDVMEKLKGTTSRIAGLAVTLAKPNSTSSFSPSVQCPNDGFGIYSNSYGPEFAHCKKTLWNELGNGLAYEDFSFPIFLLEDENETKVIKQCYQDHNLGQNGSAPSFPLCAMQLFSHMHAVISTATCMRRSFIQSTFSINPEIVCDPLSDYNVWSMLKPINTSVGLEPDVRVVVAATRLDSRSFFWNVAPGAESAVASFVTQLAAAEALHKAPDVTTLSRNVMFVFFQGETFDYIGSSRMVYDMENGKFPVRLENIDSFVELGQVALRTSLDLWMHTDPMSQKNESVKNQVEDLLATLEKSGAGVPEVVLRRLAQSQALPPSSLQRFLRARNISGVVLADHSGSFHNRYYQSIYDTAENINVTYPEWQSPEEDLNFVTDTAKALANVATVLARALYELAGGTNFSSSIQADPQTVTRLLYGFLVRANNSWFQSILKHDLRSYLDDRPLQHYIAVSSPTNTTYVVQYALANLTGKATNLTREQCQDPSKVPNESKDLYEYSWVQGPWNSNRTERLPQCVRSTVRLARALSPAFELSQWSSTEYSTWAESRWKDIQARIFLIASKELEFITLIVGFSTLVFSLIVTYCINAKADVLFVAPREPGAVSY
UniProt Q86TM6: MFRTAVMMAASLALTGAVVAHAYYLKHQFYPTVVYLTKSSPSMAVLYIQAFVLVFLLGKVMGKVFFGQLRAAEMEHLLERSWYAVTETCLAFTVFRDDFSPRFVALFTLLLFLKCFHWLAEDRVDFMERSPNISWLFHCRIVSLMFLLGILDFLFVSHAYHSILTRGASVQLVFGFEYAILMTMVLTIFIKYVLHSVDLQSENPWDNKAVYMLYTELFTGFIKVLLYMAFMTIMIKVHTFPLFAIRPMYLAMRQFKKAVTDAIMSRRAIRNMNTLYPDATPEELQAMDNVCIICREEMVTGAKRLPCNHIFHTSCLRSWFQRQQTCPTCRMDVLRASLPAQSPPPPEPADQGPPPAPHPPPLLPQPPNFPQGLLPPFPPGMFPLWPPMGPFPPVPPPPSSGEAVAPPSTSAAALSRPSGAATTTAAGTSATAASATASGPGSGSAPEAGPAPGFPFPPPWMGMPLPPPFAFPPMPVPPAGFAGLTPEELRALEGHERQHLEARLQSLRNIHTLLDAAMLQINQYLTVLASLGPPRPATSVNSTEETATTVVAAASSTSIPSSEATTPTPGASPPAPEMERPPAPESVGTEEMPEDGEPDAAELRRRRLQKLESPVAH
UniProt Q9R049: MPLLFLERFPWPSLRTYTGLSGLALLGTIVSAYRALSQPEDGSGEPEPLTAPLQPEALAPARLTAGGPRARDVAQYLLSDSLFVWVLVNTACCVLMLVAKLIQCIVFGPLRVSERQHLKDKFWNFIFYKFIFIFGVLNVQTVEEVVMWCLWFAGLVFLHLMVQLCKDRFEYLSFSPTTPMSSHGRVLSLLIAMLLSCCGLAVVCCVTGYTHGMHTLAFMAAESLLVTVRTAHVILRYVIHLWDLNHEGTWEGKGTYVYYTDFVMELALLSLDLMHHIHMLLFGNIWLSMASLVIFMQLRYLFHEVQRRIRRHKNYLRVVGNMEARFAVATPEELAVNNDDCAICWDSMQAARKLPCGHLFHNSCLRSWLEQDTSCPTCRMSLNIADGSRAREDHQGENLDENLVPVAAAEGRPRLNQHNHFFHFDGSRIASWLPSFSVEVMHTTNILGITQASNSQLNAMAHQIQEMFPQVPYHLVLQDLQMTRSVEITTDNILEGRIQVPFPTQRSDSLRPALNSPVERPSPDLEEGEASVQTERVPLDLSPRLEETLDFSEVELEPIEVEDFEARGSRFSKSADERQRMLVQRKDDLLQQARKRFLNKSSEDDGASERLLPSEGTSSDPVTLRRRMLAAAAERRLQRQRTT

Tests used:
[1] = target: endogenous membralin (N2a cells) (mouse (endogenous in N2a)) (UniProt Q8CIV2); assay: co-IP; endogenous membralin immunoprecipitated from N2a whole cell homogenates in 1% digitonin lysis buffer; normal conditions and ER stress (tunicamycin 5 μg/ml or thapsigargin 500 nM, 4 hrs)
[2] = target: endogenous membralin (N2a cells) (mouse (endogenous in N2a)) (UniProt Q8CIV2); assay: co-IP; endogenous membralin immunoprecipitated from N2a membrane fractions; blots for gamma-secretase components
[3] = target: endogenous membralin (mouse brain) (mouse (endogenous in brain)) (UniProt Q8CIV2); assay: co-IP; endogenous; mouse brain organelle-enriched (nuclear- and cytosol-free) pellet lysed in 50 mM Tris-HCl pH 8.0, 150 mM NaCl, 1% NP40; 500 μg lysate, membralin antibody, Protein G magnetic beads, 4 °C overnight
[4] = target: Myc-tagged mouse membralin (mouse) (UniProt Q8CIV2); assay: co-IP; Myc-membralin transfected in HEK293T for 3 days; 1 mg lysate in IP buffer, c-Myc antibody or rabbit IgG control, protein A/G magnetic beads, 4 °C overnight; blots for endogenous proteins

Substance: SYVN1 (endogenous, N2a) (from UniProt Q9DBY1 1-612)
binding [1]: binds

Substance: PEN2 (endogenous, N2a) (from UniProt Q9CQR7 1-101)
binding [2]: no binding

Substance: AMFR (endogenous, HEK293T) (from UniProt Q9UKV5 1-643)
binding [4]: binds

More lines, now with the values ahead:

binding [2]: binds
Substance: immature nicastrin (endogenous, N2a) (from UniProt P57716 28-708)

binding [3]: binds
Substance: nicastrin (endogenous, mouse brain) (from UniProt P57716 28-708)

binding [4]: binds
Substance: SYVN1 (endogenous, HEK293T) (from UniProt Q86TM6 1-617)

binding [1]: binds
Substance: AMFR (endogenous, N2a) (from UniProt Q9R049 1-643)
